Measured values reported in the supplement of paper PMC3334620.
The full ranking holds about 33,000 sequences; the median of “E-score (-0.5 to 0.5)” is about -0.021, and the highest 2% start at about 0.32. The list shows a part of the results.

What follows are sequences tested against T1, Zap1 (UniProt P47043) (assay: PBM E-score (8-mer binding enrichment) (E-score (-0.5 to 0.5)); higher = stronger / more preferred TF binding; most listed sequences are background and not binding sites). Conditions: protein concentration: 200 nM; construct: GST-full length.
T1 sequence: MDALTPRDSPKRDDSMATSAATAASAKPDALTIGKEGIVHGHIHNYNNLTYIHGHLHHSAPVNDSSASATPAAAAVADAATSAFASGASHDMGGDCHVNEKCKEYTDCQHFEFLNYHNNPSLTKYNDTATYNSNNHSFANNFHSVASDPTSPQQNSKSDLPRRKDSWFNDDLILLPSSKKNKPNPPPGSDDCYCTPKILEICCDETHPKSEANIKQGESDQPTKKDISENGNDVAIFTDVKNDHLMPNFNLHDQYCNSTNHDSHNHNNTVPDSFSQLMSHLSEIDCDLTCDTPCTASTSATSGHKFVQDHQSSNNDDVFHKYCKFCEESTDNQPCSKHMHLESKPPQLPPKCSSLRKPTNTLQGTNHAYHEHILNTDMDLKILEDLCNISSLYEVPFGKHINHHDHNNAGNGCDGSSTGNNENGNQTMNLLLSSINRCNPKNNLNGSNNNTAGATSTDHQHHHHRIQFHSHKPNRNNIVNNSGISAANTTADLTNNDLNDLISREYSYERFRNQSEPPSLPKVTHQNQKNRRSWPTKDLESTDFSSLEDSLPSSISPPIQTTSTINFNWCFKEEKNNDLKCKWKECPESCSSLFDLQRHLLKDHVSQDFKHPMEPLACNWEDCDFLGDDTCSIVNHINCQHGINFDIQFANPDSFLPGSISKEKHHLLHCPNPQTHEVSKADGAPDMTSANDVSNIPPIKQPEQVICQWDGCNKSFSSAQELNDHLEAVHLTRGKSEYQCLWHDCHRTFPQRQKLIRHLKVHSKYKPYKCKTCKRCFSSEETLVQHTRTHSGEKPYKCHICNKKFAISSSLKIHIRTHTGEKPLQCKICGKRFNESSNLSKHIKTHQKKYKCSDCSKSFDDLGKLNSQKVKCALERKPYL
Method in brief: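 GST-tagged yeast TFs (full-length or DNA-binding domain) were made by PURExpress in vitro transcription/translation and applied at about 100-200 nM to universal all-10-mer Agilent arrays. The arrays were made double-stranded by primer extension, on fresh or once-stripped slides. Bound protein was detected with fluorescent anti-GST, and scans were normalised with masliner. Each ungapped eight-base word, pooled with its reverse complement, received an E-score (modified Wilcoxon-Mann-Whitney statistic) from the Universal PBM Analysis Suite.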

First: GCGTAAAA
Second: GCTCTCTA
The “PBM E-score” value of the first is higher: 0.0769 for the first, -0.246 for the second.

First: ACGAGATG
Second: TCACCAAA
The “PBM E-score” value of the first is lower: -0.0678 for the first, 0.113 for the second.

First: CTTTTAGC
Second: AGCCGACC
The “PBM E-score” value of the first is higher: 0.114 for the first, -0.16 for the second.

First: CATTAGCC
Second: CCACTGAA
The “PBM E-score” value of the first is lower: -0.125 for the first, 0.0888 for the second.

Compared with CACCCACA, GATTATCC is lower in “PBM E-score” value: 0.168 for the first, 0.0574 for the second.

First: CCACGGGA
Second: TAGACCCA
The “PBM E-score” value of the first is lower: -0.115 for the first, 0.0451 for the second.

Compared with AGGTACAC, AGGAAGGG is lower in “PBM E-score” value: 0.11 for the first, -0.345 for the second.

Going from CGGCCGTA to AATCTTGG, the “PBM E-score” value falls from -0.0113 to -0.124.

Compared with CTCTAGCA, AAAAAAAA is higher in “PBM E-score” value: -0.267 for the first, 0.268 for the second.

Going from ACTGTAGC to CCGCCAGG, the “PBM E-score” value rises from -0.136 to 0.0562.

Going from TCCTCCCA to CAGTGAGC, the “PBM E-score” value rises from -0.284 to -0.179.

First: AGGGGTTG
Second: ATGGTACA
The “PBM E-score” value of the first is higher: 0.337 for the first, 0.08 for the second.

Compared with TGCGACAA, GAAGAAGC is lower in “PBM E-score” value: 0.136 for the first, -0.231 for the second.

Compared with ACCCGAAC, CGCCCCCA is lower in “PBM E-score” value: 0.268 for the first, -0.2 for the second.

Going from ATAGCATA to GCTACTAA, the “PBM E-score” value falls from 0.0123 to -0.0541.

Going from AACGCGGA to GCCGGGGA, the “PBM E-score” value falls from 0.0555 to -0.283.

Compared with GGAGCCAA, ATTAGGGG is lower in “PBM E-score” value: -0.00669 for the first, -0.103 for the second.

Compared with ACCCCTCC, AAGCCACT is lower in “PBM E-score” value: 0.237 for the first, -0.191 for the second.

Going from AAGGAGAT to CTAGCAAA, the “PBM E-score” value rises from -0.214 to 0.131.

First: ACGAGACT
Second: ACCCTACA
The “PBM E-score” value of the first is lower: -0.16 for the first, 0.419 for the second.

Compared with CATTCGAC, CCGCAGGC is higher in “PBM E-score” value: -0.0507 for the first, -0.0333 for the second.

Compared with CCTAGTGC, AATTGGGC is lower in “PBM E-score” value: 0.0552 for the first, -0.0672 for the second.

Compared with AAGCAGAA, GATTTTCA is higher in “PBM E-score” value: -0.0277 for the first, -0.027 for the second.

Going from AGACAGTA to AGGGGTAG, the “PBM E-score” value rises from -8e-05 to 0.312.

Compared with GAAAGCTA, AACGTCTG is higher in “PBM E-score” value: -0.286 for the first, -0.0903 for the second.

Compared with AATATCAT, AATCCTAA is lower in “PBM E-score” value: 0.111 for the first, -0.0168 for the second.

Going from ACTCAACT to TCCACAAA, the “PBM E-score” value rises from 0.0202 to 0.115.

Compared with ACGATTTA, GGAATCCA is lower in “PBM E-score” value: 0.241 for the first, -0.115 for the second.

Compared with GGTAACGA, ACGTATGA is lower in “PBM E-score” value: 0.294 for the first, 0.0742 for the second.

First: CTACGGCC
Second: CGTTCCCC
The “PBM E-score” value of the first is lower: -0.247 for the first, -0.0626 for the second.

First: TGAATGCA
Second: CGGGGCAC
The “PBM E-score” value of the first is higher: 0.0491 for the first, -0.127 for the second.

Compared with CCGGAATC, GTATTGAA is higher in “PBM E-score” value: -0.0521 for the first, 0.161 for the second.

Going from CGGCGAAG to AGTTCTCA, the “PBM E-score” value rises from -0.0345 to 0.0585.

First: TATACCAA
Second: AAAAAATA
The “PBM E-score” value of the first is higher: 0.213 for the first, 0.0377 for the second.

First: TCTGGCAA
Second: GCTATCAA
The “PBM E-score” value of the first is lower: -0.101 for the first, 0.0517 for the second.

Going from AGGTTATG to AACAAATC, the “PBM E-score” value falls from 0.475 to 0.0507.

First: GTCTACCA
Second: TGTCTCAA
The “PBM E-score” value of the first is lower: -0.0785 for the first, 0.0208 for the second.

Going from CGCGCGTA to GATCTGGA, the “PBM E-score” value falls from -0.0338 to -0.094.

Going from AGCTCGAT to GAAGCTAA, the “PBM E-score” value rises from -0.221 to -0.162.

Going from GCTACTCC to CTGTAAAA, the “PBM E-score” value rises from -0.0799 to 0.206.

Compared with ACAGTATA, GGACGTCA is lower in “PBM E-score” value: 0.0206 for the first, -0.164 for the second.

Compared with GGCATCTA, ATTCTTAG is higher in “PBM E-score” value: -0.109 for the first, -0.0155 for the second.

First: ACAAACTA
Second: ACACCCTG
The “PBM E-score” value of the first is lower: 0.174 for the first, 0.21 for the second.

First: AATTCTCG
Second: CCCCCGTC
The “PBM E-score” value of the first is higher: 0.00213 for the first, -0.421 for the second.

Compared with GGCATGAA, CCGCGTCC is higher in “PBM E-score” value: -0.0985 for the first, 0.0947 for the second.

First: AGAACGCC
Second: AATGTAAT
The “PBM E-score” value of the first is lower: -0.0981 for the first, 0.181 for the second.

First: GATTAACC
Second: AATGCAAA
The “PBM E-score” value of the first is higher: 0.173 for the first, 0.119 for the second.

First: CGGTCCCA
Second: CCGGCGAA
The “PBM E-score” value of the first is higher: -0.0137 for the first, -0.0278 for the second.

Going from AATCCGGG to ACCCTGTC, the “PBM E-score” value rises from -0.0144 to 0.193.

First: AGTAAGTA
Second: CGTCACGA
The “PBM E-score” value of the first is higher: 0.0433 for the first, -0.0348 for the second.

Compared with CTCTCCCC, CGGCTACA is higher in “PBM E-score” value: -0.205 for the first, 0.0447 for the second.

Going from GCTTTTCA to AGGCACTC, the “PBM E-score” value falls from -0.115 to -0.203.

Going from AATAGATA to GTCACGTA, the “PBM E-score” value falls from 0.026 to -0.0578.

Going from CTCGCGAG to AATGTTGT, the “PBM E-score” value falls from 0.203 to -0.0367.

First: GGAGCCAC
Second: ACTATTAT
The “PBM E-score” value of the first is lower: -0.167 for the first, 0.0475 for the second.

Compared with CCGCTGCG, ACTGGTTC is higher in “PBM E-score” value: -0.127 for the first, 0.0663 for the second.

Going from ATCGAGCA to ATGGTCTC, the “PBM E-score” value rises from -0.0854 to 0.179.

First: ATACGTAA
Second: CCAACCAG
The “PBM E-score” value of the first is higher: 0.0782 for the first, -0.0525 for the second.

Going from CGCAGGCA to CAAATGGG, the “PBM E-score” value rises from -0.0398 to 0.0267.

Going from CACGCCGA to ATGGGTGA, the “PBM E-score” value rises from -0.209 to 0.0908.

First: CCGACACG
Second: CTCTCTAC
The “PBM E-score” value of the first is lower: -0.273 for the first, -0.0716 for the second.

First: GGGCACCA
Second: CGGTCGCA
The “PBM E-score” value of the first is higher: -0.025 for the first, -0.177 for the second.

First: GTTCCACA
Second: ACAAGTAC
The “PBM E-score” value of the first is lower: -0.0745 for the first, 0.0992 for the second.

Going from CACAGCAC to GGCTACAC, the “PBM E-score” value rises from -0.183 to -0.0691.

Going from AGGACAAG to AATTTTCG, the “PBM E-score” value rises from -0.168 to 0.00815.

Going from GGATCAAA to AAAGACGA, the “PBM E-score” value falls from 0.189 to -0.0727.

Going from GGATCGCC to AGGGAGAG, the “PBM E-score” value falls from -0.0607 to -0.0798.

First: GACAGGTA
Second: ATGTTTCA
The “PBM E-score” value of the first is higher: 0.219 for the first, 0.161 for the second.

Going from GAAGGGAC to AAGACCAT, the “PBM E-score” value rises from -0.0755 to 0.101.

Going from CCGGGACC to CGTATATA, the “PBM E-score” value falls from 0.0253 to -0.0637.

Compared with CTCACAAG, GAGATCAA is lower in “PBM E-score” value: 0.138 for the first, 0.0561 for the second.

First: AAGCTGAT
Second: CCCCGAAG
The “PBM E-score” value of the first is lower: -0.0964 for the first, -0.0603 for the second.

First: CCTATAGA
Second: AGTTCTCC
The “PBM E-score” value of the first is higher: 0.026 for the first, -0.158 for the second.

First: GCTTGTAA
Second: CTAAATCC
The “PBM E-score” value of the first is higher: 0.114 for the first, -0.0277 for the second.

Going from ATCCATGG to CGGGATTC, the “PBM E-score” value rises from -0.0192 to 0.0975.

Compared with AACGCTAA, CTTTGGTC is higher in “PBM E-score” value: -0.143 for the first, 0.212 for the second.

Compared with AGGTAGGC, AGCACTAA is higher in “PBM E-score” value: -0.0588 for the first, 0.00056 for the second.

First: CACGTCGA
Second: CATTGAGG
The “PBM E-score” value of the first is lower: -0.158 for the first, -0.0652 for the second.

Compared with CCTTGGTA, GATATACA is lower in “PBM E-score” value: 0.177 for the first, 0.0861 for the second.

First: ACTCCGTG
Second: AGAGTCCG
The “PBM E-score” value of the first is higher: -0.15 for the first, -0.152 for the second.

Compared with AGAGTTCC, ACCTTGTC is higher in “PBM E-score” value: -0.167 for the first, 0.106 for the second.

First: AAACTGGG
Second: CTATGCCC
The “PBM E-score” value of the first is lower: -0.0632 for the first, -0.0231 for the second.

Going from ATTACGCA to ATTCCATG, the “PBM E-score” value falls from 0.113 to -0.113.

Going from CGAGGTCC to AAACCTCT, the “PBM E-score” value rises from 0.0996 to 0.252.

Going from GACCATCC to CCGATAAA, the “PBM E-score” value rises from -0.012 to 0.00825.

Compared with CACAGACA, GGGTGATA is higher in “PBM E-score” value: 0.197 for the first, 0.277 for the second.
